# Measurements as given in the supplement of paper PMC11417369.
# This is one part of the list.
# System: PfAP2-HC AP2 domain (GST-tagged)
# Test: gcPBM binding intensity (ln(normalized median fluorescence intensity)); higher = stronger DNA binding
# Procedure, shortened: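 Binding intensity is defined as the maximum Masliner-normalised natural-log median intensity across replicate spots for either probe orientation. It was measured on an Agilent 4 × 180k array of primer-extended double-stranded 36-bp intergenic genomic probes and negative controls, to which GST-tagged P. falciparum DNA-binding domains made in E. coli were applied for 1 h in 1× PBS with 1% milk, 0.2 mg/ml BSA, 0.5% salmon testes DNA and 0.03% Triton X-100. Detection was by Alexa488 anti-GST antibody and scanning at 488 nm.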
row,Sequence,gcPBM binding intensity (ln)
1,TTGAAATGCATGAACACACACAGCTATAAATGCATA [CACACA_site968],10.2
2,AAAATATTATCTAATTGTACTTATATAACTATATAT [XGTACX_site5699],9.73
3,ATACTAAGGAGAAAAGAAAAGTGAATTTATTCTATA [CACACA_negctrl_site1792],9.4
4,AAATTTATGAACCTAGTGCAGAAATTAAAAAGATGA [GTGCAC_site9396],9.54
5,TTATTAACCTAAATTAGTACATATAATATAAAAAAT [XGTACX_site8661],9.53
6,AGCTATGTATTCTACACACACATACACCCATATATA [CACACA_site5827],10.1
7,AATATGTCATATATGTGTACATATGCACAGATATTA [XGTACX_site951],9.71
8,TGAACTTTAAACCCTGAACACACACTAATACACCCA [CACACA_site7970],10.6
9,ATAAAAAGAAATCCAATACACACCTTCAAAATGGGT [CACACA_site1622],10.1
10,ATTCAATATTTATACACACACACTTTTAATAATTAA [CACACA_site7725],10.2
11,ATATATATAATAAATACACACATTTATATAGATAAA [CACACA_site3254],9.83
12,TCATTCAGTTTTATCACACACAATCAAACATATATA [CACACA_site2742],9.87
13,AAACATTTATCAATGAATCTTTTAATAAGTGTAAAG [XGTACX_negctrl_site80],9.46
14,TATTTTTTTAGATATACATGCAAAAACAGAAGAAAT [TGCATGCA_site283],9.54
15,AATATAAGGATATATACACACATAAATACATACATA [CACACA_site7859],9.99
16,TCAACATTCATTGGAAGTACTCACTCCCATATAATA [XGTACX_site5211],9.46
17,TATATATATATATTCACACATATAGTATTGTATTTA [CACACA_site5147],9.72
18,TATATTTTATATTAGTGTACAAATTTCATTTTTCAT [XGTACX_site2204],9.62
19,AATATATATAAAAAAGTGCATTAGGATAACCATATA [GTGCAC_site9590],9.91
20,GGTATACATAATACTTGTACTAGGCAACAATAAGAT [XGTACX_site1437],9.75
21,AAGAAGAAAAACCATTGTACGAACTAACATATATAA [XGTACX_site3226],9.77
22,TGTTAAAAGAAAAAAAGTACAAAAAATTATACATTT [XGTACX_site467],9.45

row,Sequence,gcPBM binding intensity (ln)
1,ATATATTTATATTTGTGTACATATTTATTATATTTA [XGTACX_site404],9.86
2,AATATGAATATCTATACACACACATATATATACACA [CACACA_site8459],10.1
3,ATTTGTGACCACACAAATAAATAAATAAAAAAAAAA [TGCATGCA_negctrl_site328],9.57
4,TAATAATAGAAACACACACACATTTTTAATAATACA [CACACA_site1216],10.9
5,TTTTATTTTTATAACAGTACATAAGTAATTGTTCAA [XGTACX_site7574],9.42
6,TTATAATAAAAAAATTCCTAAGTCCGTATATATTAT [CACACA_negctrl_site1698],9.45
7,TTTTATCATCACATTTGTCAAAAAAAAAAAAAAAAA [CACACA_negctrl_site1296],9.11
8,ATATCAAACTAGAATGTGCGCATGCATTCAAGTTTT,9.56
9,TTATGTTCATTATATGCACACATATATATAAATGTA [CACACA_site8947],9.65
10,GATTTTATAATTTCTACACACATATAAGAATATTCA [CACACA_site2802],9.7
11,AAAAAAAATTTCTCAAGTACACAATTTTTTTTTGTT [XGTACX_site5874],9.51
12,TTTTTTTAAATATATAAGATAAATTTATAAATAAAT [XGTACX_negctrl_site282],9.12
13,TTCAATTTTTTAAAGCGTACATATAAAAGTTATATG [XGTACX_site731],9.26
14,AATCATTTGTTATAAGTCTAAAATTATTAGAATATT [XGTACX_negctrl_site151],9.56
15,ATTATTACATATAATGCATGTGCATATATTTTTATA [TGCATGCA_site701],9.69
16,AAATTTGGATGACTCAATAAATTATAATATATATAT [CACACA_negctrl_site298],9.49
17,ATATTCTTTATATGCATACACACCTAATATAGGGAC [CACACA_site1533],9.72
18,ATATATATACTGTGTACACAAATATATATTATATAT [CACACA_site6104],9.76
19,AAAAATAAAAAAAGCACACACATATAAATAAATATA [CACACA_site6968],10.2
20,TAATTTTTCTTTTATTAACACACATATAAATAAATA [CACACA_site8935],9.46
21,CCCAATAATTAAACAACACACATATTTATAGGTAAT [CACACA_site7445],10
22,ATATATTTATATATTACACACAATATTGTAGACATA [CACACA_site4669],9.74

row,Sequence,gcPBM binding intensity (ln)
1,TATATGACAAGATAAAGTACAAATTTGTATATATAT [XGTACX_site3027],9.88
2,TTTACACGTACGTGTACACACAAAAATATGTTTTTA [CACACA_site995],9.74
3,AAATTCCACGGACACACACACATATAAATAAATAAA [CACACA_site4811],10.4
4,TGTAGTCTGGAGAAAAGTACATAGTATCTGGTAGCT [XGTACX_site2031],9.64
5,GAAAGAAATAAAGGTGGTACATAAATAAAAACTAAG [XGTACX_site4826],9.71
6,ATTTATATGGTTTGCACACATAACAACTATGGTTAT [CACACA_site3632],10.2
7,AACATAAAAAAAATATGTACATATATAATATATATA [XGTACX_site3764],9.78
8,TAAAATAAAAAGTTTACACACATATATAATTTTAAT [CACACA_site662],9.74
9,AACCATTTTAAATATGCACACAGATGCACTAACACA [CACACA_site8565],9.9
10,GAATTATATAATTAAAGTACATTGTTTATATAATCA [XGTACX_site7246],9.55
11,CATCCATATAAAATATGTACATATATATATATATAT [XGTACX_site5859],9.72
12,TCCTTTCAACCATATATAATGACATGTACTCAAAAA [GTGCAC_negctrl_site417],9.39
13,TATTTTAGTAAAGGTGGTACTTTTAAGTTCATGTAT [XGTACX_site1854],9.6
14,AAAAAAAAAGAAAAATGTACATACATAAATATATAT [XGTACX_site5664],9.75
15,ATTATAAACCATAATTAACACACAAAATAAGTTACA [CACACA_site9057],9.9
16,AAAAAAAAAAAAAAAAGTACACAAATAGATTTATAT [XGTACX_site3727],9.53
17,ATTCTATTTTTTATAAAACCATGTCATCAACATAGG [CACACA_negctrl_site237],9.47
18,TCGTGAGAAAATATTACACACATTTACTATAGTATC [CACACA_site3444],10
19,TTTTTTAAAGATTACTCAAAAAAATAAAAAAATAAA [GTGCAC_negctrl_site222],9.23
20,TGAGTTCAACAAAGACGTACAAAACCAAAAATATAA [XGTACX_site8931],9.67
21,TTTTTTTTTTTTTTTTGATACATTAACCTACAATGG [GTGCAC_negctrl_site625],9.06
22,TATATATCAAGACACACACACATATATTTATTTATA [CACACA_site7733],11.2

row,Sequence,gcPBM binding intensity (ln)
1,GATAATTTATTTTTTCGTACACAAAATATAATATAT [XGTACX_site1470],9.57
2,TTATAATATGTATACACACACATATATAAATATATA [CACACA_site2326],9.92
3,TTTTGTTATATACAATAGATCAGAAGAAATGAAGTT [CACACA_negctrl_site1579],9.62
4,CAATGTTAACATATTACACACATATGTATATAGAAT [CACACA_site2732],9.9
5,CTTACGTATTAAGTGTGTCCGTAGTGTTCATAGTTC [XGTACX_site8913],9.72
6,AAAATTTATAAAAGCACACAAAATAAAAAAAAATGA [CACACA_site1491],9.88
7,TGTACGAGTCGTAGAGTGCAGTCTGGAGAAGAGTAC [GTGCAC_site9684],9.69
8,TATATATGTATATATTTTATAAGTATGCAAGAAAAT [TGCATGCA_negctrl_site486],9.67
9,ATATTGGAATAAATTTGTACATATATATATTATTCA [XGTACX_site916],9.53
10,ACATAATGCTAGACACGTACGTACATCCGTGAGGTT [XGTACX_site4156],9.79
11,TTATTATTATATTCTACATGCAGTTTGTGTAGAACA [TGCATGCA_site455],9.6
12,TGAACTCAACAAAGGGTGCATAACAAAAATAGACGT,9.84
13,GTAAAAGAACGGCATGCATGAAAAATATTACACATG [TGCATGCA_site143],9.93
14,AATATATGGTTTCATGATATTAAATACAATTTAATG [CACACA_negctrl_site1503],9.45
15,ATATATATATGTATATGTACTTATATTATTGTTTGT [XGTACX_site1466],9.78
16,CTATAATTATGATGAAGTACATATGAGTTCAAAAAA [XGTACX_site3070],9.59
17,AAAGTAAATTTAAGCACACACAACGAATTTTTATAC [CACACA_site1959],10.9
18,TTTCAATAATAAAAAACACACACAAAAAAAAATAAT [CACACA_site8905],11
19,AAAAATATAAACACCAGTACACAAACCTATAATGGA [XGTACX_site3846],10.5
20,GCATATAAAATAAATCGTACATGTAAAACATAATTA [XGTACX_site7077],9.72
21,TTTTTTTTTTTTATATGTACTAATAATCTTTTTTTT [XGTACX_site3552],9.5
22,AATATTTTATATGTAGTGCATTACTATAGGATTTAT [GTGCAC_site9424],9.63
